Some of the results follow.
Key:
Assay in all cases: glycan array binding signal (z-score within array); higher = stronger binding
Conditions in all cases: glycan notation: IUPAC condensed, linker removed
[1] = target: Fuc(a1-2)[Gal(a1-3)]Gal(b1-4)GlcNAc(b1-2)Man
How it was run: (§1)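 Negative Z-scores can be read as non-binding. The Z-score is calculated within each array and then averaged across arrays of one protein sequence at different concentrations or buffers and across linkers. Arrays, 3228 in all, were curated from the Consortium for Functional Glycomics database and kept only where the protein sequence was available.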

[2] = target: Fuc(a1-2)[Gal(a1-3)]Gal(b1-4)GlcNAc(b1-2)Man(a1-3)[Fuc(a1-2)[Gal(a1-3)]Gal(b1-4)GlcNAc(b1-2)Man(a1-6)]Man(b1-4)GlcNAc(b1-4)GlcNAc
How it was run: as §1

[3] = target: Fuc(a1-2)[Gal(a1-3)]Gal(b1-4)GlcNAc(b1-2)Man(a1-3)[Fuc(a1-2)[Gal(a1-3)]Gal(b1-4)GlcNAc(b1-2)Man(a1-6)]Man(b1-4)GlcNAc(b1-4)[Fuc(a1-6)]GlcNAc
How it was run: as §1

[4] = target: Fuc(a1-2)[Gal(a1-3)]Gal(b1-4)GlcNAc(b1-3)GalNAc
How it was run: as §1

[5] = target: Fuc(a1-2)[Gal(a1-3)]Gal(b1-4)GlcNAc(b1-3)[Fuc(a1-2)[Gal(a1-3)]Gal(b1-4)GlcNAc(b1-6)]GalNAc
How it was run: as §1

[6] = target: Fuc(a1-2)[Gal(a1-3)]Gal(b1-4)GlcNAc(b1-6)GalNAc
How it was run: as §1

[7] = target: Fuc(a1-2)[Gal(a1-3)]Gal(b1-4)[Fuc(a1-3)]Glc
How it was run: as §1

[8] = target: Fuc(a1-2)[Gal(a1-3)]Gal(b1-4)[Fuc(a1-3)]GlcNAc
How it was run: as §1

[9] = target: Fuc(a1-2)[Gal(a1-3)]Gal(b1-4)[Fuc(a1-3)]GlcNAc(b1-3)GalNAc
How it was run: as §1

[10] = target: Fuc(a1-2)[Gal(a1-4)]Gal(b1-4)GlcNAc
How it was run: as §1

[11] = target: Fuc(a1-2)[GalNAc(a1-3)]Gal
How it was run: as §1

[12] = target: Fuc(a1-2)[GalNAc(a1-3)]Gal(b1-3)GalNAc(a1-3)[Fuc(a1-2)]Gal(b1-4)GlcNAc
How it was run: as §1

[13] = target: Fuc(a1-2)[GalNAc(a1-3)]Gal(b1-3)GalNAc(b1-3)Gal(a1-4)Gal(b1-4)Glc
How it was run: as §1

[14] = target: Fuc(a1-2)[GalNAc(a1-3)]Gal(b1-3)GlcNAc
How it was run: as §1

[15] = target: Fuc(a1-2)[GalNAc(a1-3)]Gal(b1-3)GlcNAc(b1-2)Man(a1-3)[Fuc(a1-2)[GalNAc(a1-3)]Gal(b1-3)GlcNAc(b1-2)Man(a1-6)]Man(b1-4)GlcNAc(b1-4)GlcNAc
How it was run: as §1

[16] = target: Fuc(a1-2)[GalNAc(a1-3)]Gal(b1-3)GlcNAc(b1-2)Man(a1-3)[Fuc(a1-2)[GalNAc(a1-3)]Gal(b1-3)GlcNAc(b1-2)Man(a1-6)]Man(b1-4)GlcNAc(b1-4)[Fuc(a1-6)]GlcNAc
How it was run: as §1

[17] = target: Fuc(a1-2)[GalNAc(a1-3)]Gal(b1-3)GlcNAc(b1-3)GalNAc
How it was run: as §1

[18] = target: Fuc(a1-2)[GalNAc(a1-3)]Gal(b1-3)GlcNAc(b1-6)GalNAc
How it was run: as §1

[19] = target: Fuc(a1-2)[GalNAc(a1-3)]Gal(b1-4)Glc
How it was run: as §1

[20] = target: Fuc(a1-2)[GalNAc(a1-3)]Gal(b1-4)GlcNAc
How it was run: as §1

[21] = target: Fuc(a1-2)[GalNAc(a1-3)]Gal(b1-4)GlcNAc(b1-2)Man
How it was run: as §1

[22] = target: Fuc(a1-2)[GalNAc(a1-3)]Gal(b1-4)GlcNAc(b1-2)Man(a1-3)[Fuc(a1-2)[GalNAc(a1-3)]Gal(b1-4)GlcNAc(b1-2)Man(a1-6)]Man(b1-4)GlcNAc(b1-4)GlcNAc
How it was run: as §1

[23] = target: Fuc(a1-2)[GalNAc(a1-3)]Gal(b1-4)GlcNAc(b1-2)Man(a1-3)[Fuc(a1-2)[GalNAc(a1-3)]Gal(b1-4)GlcNAc(b1-2)Man(a1-6)]Man(b1-4)GlcNAc(b1-4)[Fuc(a1-6)]GlcNAc
How it was run: as §1

[24] = target: Fuc(a1-2)[GalNAc(a1-3)]Gal(b1-4)GlcNAc(b1-3)Gal(b1-4)GlcNAc
How it was run: as §1

[25] = target: Fuc(a1-2)[GalNAc(a1-3)]Gal(b1-4)GlcNAc(b1-3)Gal(b1-4)GlcNAc(b1-3)Gal(b1-4)GlcNAc
How it was run: as §1

[26] = target: Fuc(a1-2)[GalNAc(a1-3)]Gal(b1-4)GlcNAc(b1-3)GalNAc
How it was run: as §1

[27] = target: Fuc(a1-2)[GalNAc(a1-3)]Gal(b1-4)GlcNAc(b1-3)[Fuc(a1-2)[GalNAc(a1-3)]Gal(b1-4)GlcNAc(b1-6)]GalNAc
How it was run: as §1

[28] = target: Fuc(a1-2)[GalNAc(a1-3)]Gal(b1-4)GlcNAc(b1-6)GalNAc
How it was run: as §1

[29] = target: Fuc(a1-2)[GalNAc(a1-3)]Gal(b1-4)[Fuc(a1-3)]GlcNAc
How it was run: as §1

[30] = target: Fuc(a1-2)[GalNAc(a1-3)]Gal(b1-4)[Fuc(a1-3)]GlcNAc(b1-3)GalNAc
How it was run: as §1

[31] = target: Fuc(a1-2)[GalNAc(a1-4)]Gal(b1-4)GlcNAc
How it was run: as §1

[32] = target: Fuc(a1-2)[GalNAc(b1-3)]Gal
How it was run: as §1

Fuc(a1-3)GlcNAc = target: Fuc(a1-3)GlcNAc
How it was run: as §1

[33] = target: Fuc(a1-3)[Gal(b1-4)]Glc6S
How it was run: as §1

[34] = target: Fuc(a1-3)[Gal(b1-4)]GlcNAc
How it was run: as §1

[35] = target: Fuc(a1-3)[Gal(b1-4)]GlcNAc(b1-2)Man
How it was run: as §1

[36] = target: Fuc(a1-3)[Gal(b1-4)]GlcNAc(b1-2)Man(a1-3)[Fuc(a1-3)[Gal(b1-4)]GlcNAc(b1-2)Man(a1-6)]Man(b1-4)GlcNAc(b1-4)GlcNAc
How it was run: as §1

[37] = target: Fuc(a1-3)[Gal(b1-4)]GlcNAc(b1-2)Man(a1-3)[Fuc(a1-3)[Gal(b1-4)]GlcNAc(b1-2)Man(a1-6)]Man(b1-4)GlcNAc(b1-4)[Fuc(a1-6)]GlcNAc
How it was run: as §1

[38] = target: Fuc(a1-3)[Gal(b1-4)]GlcNAc(b1-3)Gal(b1-3)[Fuc(a1-4)]GlcNAc
How it was run: as §1

[39] = target: Fuc(a1-3)[Gal(b1-4)]GlcNAc(b1-3)Gal(b1-4)[Fuc(a1-3)]GlcNAc
How it was run: as §1

[40] = target: Fuc(a1-3)[Gal(b1-4)]GlcNAc(b1-3)Gal(b1-4)[Fuc(a1-3)]GlcNAc(b1-3)Gal(b1-4)[Fuc(a1-3)]GlcNAc
How it was run: as §1

[41] = target: Fuc(a1-3)[Gal(b1-4)]GlcNAc(b1-3)GalNAc
How it was run: as §1

[42] = target: Fuc(a1-3)[Gal(b1-4)]GlcNAc(b1-4)Gal(b1-4)[Fuc(a1-3)]GlcNAc
How it was run: as §1

[43] = target: Fuc(a1-3)[Gal(b1-4)]GlcNAc(b1-4)Gal(b1-4)[Fuc(a1-3)]GlcNAc(b1-4)Gal(b1-4)[Fuc(a1-3)]GlcNAc
How it was run: as §1

[44] = target: Fuc(a1-3)[Gal(b1-4)]GlcNAc(b1-6)GalNAc
How it was run: as §1

[45] = target: Fuc(a1-3)[Gal(b1-4)]GlcNAc(b1-6)[Gal(b1-3)GlcNAc(b1-3)]Gal(b1-4)Glc
How it was run: as §1

[46] = target: Fuc(a1-3)[Gal(b1-4)]GlcNAc6S
How it was run: as §1

[47] = target: Fuc(a1-3)[Gal3S(b1-4)]Glc
How it was run: as §1

[48] = target: Fuc(a1-3)[Gal3S(b1-4)]GlcNAc
How it was run: as §1

[49] = target: Fuc(a1-3)[Gal3S(b1-4)]GlcNAc6S
How it was run: as §1

[50] = target: Fuc(a1-3)[GalNAc(b1-4)]GlcNAc
How it was run: as §1

[51] = target: Fuc(a1-3)[GalNAc(b1-4)]GlcNAc6S
How it was run: as §1

Fuc(a1-4)GlcNAc = target: Fuc(a1-4)GlcNAc
How it was run: as §1

Fuc(b1-3)GlcNAc = target: Fuc(b1-3)GlcNAc
How it was run: as §1

Gal(a1-2)Gal = target: Gal(a1-2)Gal
How it was run: as §1

Gal(a1-3)Gal = target: Gal(a1-3)Gal
How it was run: as §1

Gal(a1-3)Gal(b1-3)GlcNAc = target: Gal(a1-3)Gal(b1-3)GlcNAc
How it was run: as §1

[52] = target: Gal(a1-3)Gal(b1-3)GlcNAc(b1-2)Man
How it was run: as §1

[53] = target: Gal(a1-3)Gal(b1-3)GlcNAc(b1-2)Man(a1-3)[Gal(a1-3)Gal(b1-3)GlcNAc(b1-2)Man(a1-6)]Man(b1-4)GlcNAc(b1-4)GlcNAc
How it was run: as §1

[54] = target: Gal(a1-3)Gal(b1-3)GlcNAc(b1-3)GalNAc
How it was run: as §1

B1: MAA (Maackia amurensis), P0DKL3 (protein)
chain: MATSNSKPTQVLLATFLTFFFLLLNNVNSSDELSFTINNFVPNEADLLFQGEASVSSTGVLQLTRVENGQPQKYSVGRALYAAPVRIWDNTTGSVASFSTSFTFVVKAPNPDITSDGLAFYLAPPDSQIPSGSVSKYLGLFNNSNSDSSNQIVAVELDTYFAHSYDPWDPNYRHIGIDVNGIESIKTVQWDWINGGVAFATITYLAPNKTLIASLVYPSNQTTFSVAASVDLKEILPEWVRVGFSAATGYPTEVETHDVLSWSFTSTLEANCDAATENNVHIARYTA
glycan array binding signal (z-score) [1]: -0.22 | glycan array binding signal (z-score) [2]: -0.165 | glycan array binding signal (z-score) [3]: -0.241 | glycan array binding signal (z-score) [4]: -0.135 | glycan array binding signal (z-score) [5]: -0.217 | glycan array binding signal (z-score) [6]: -0.242 | glycan array binding signal (z-score) [7]: -0.197 | glycan array binding signal (z-score) [8]: -0.118 | glycan array binding signal (z-score) [9]: 0.203 | glycan array binding signal (z-score) [10]: -0.171 | glycan array binding signal (z-score) [11]: -0.204 | glycan array binding signal (z-score) [12]: -0.24 | glycan array binding signal (z-score) [13]: -0.284 | glycan array binding signal (z-score) [14]: -0.251 | glycan array binding signal (z-score) [15]: -0.217 | glycan array binding signal (z-score) [16]: -0.195 | glycan array binding signal (z-score) [17]: -0.239 | glycan array binding signal (z-score) [18]: -0.259 | glycan array binding signal (z-score) [19]: -0.217 | glycan array binding signal (z-score) [20]: -0.228 | glycan array binding signal (z-score) [21]: -0.272 | glycan array binding signal (z-score) [22]: -0.235 | glycan array binding signal (z-score) [23]: -0.241 | glycan array binding signal (z-score) [24]: -0.236 | glycan array binding signal (z-score) [25]: -0.059 | glycan array binding signal (z-score) [26]: -0.128 | glycan array binding signal (z-score) [27]: -0.3 | glycan array binding signal (z-score) [28]: -0.264 | glycan array binding signal (z-score) [29]: -0.067 | glycan array binding signal (z-score) [30]: 0.725 | glycan array binding signal (z-score) [31]: 0.253 | glycan array binding signal (z-score) [32]: -0.178 | glycan array binding signal (z-score) (Fuc(a1-3)GlcNAc): -0.221 | glycan array binding signal (z-score) [33]: -0.125 | glycan array binding signal (z-score) [34]: -0.197 | glycan array binding signal (z-score) [35]: -0.261 | glycan array binding signal (z-score) [36]: -0.16 | glycan array binding signal (z-score) [37]: 0.363 | glycan array binding signal (z-score) [38]: -0.121 | glycan array binding signal (z-score) [39]: -0.227 | glycan array binding signal (z-score) [40]: -0.07 | glycan array binding signal (z-score) [41]: -0.03 | glycan array binding signal (z-score) [42]: -0.094 | glycan array binding signal (z-score) [43]: -0.223 | glycan array binding signal (z-score) [44]: -0.156 | glycan array binding signal (z-score) [45]: -0.176 | glycan array binding signal (z-score) [46]: -0.2 | glycan array binding signal (z-score) [47]: -0.167 | glycan array binding signal (z-score) [48]: -0.203 | glycan array binding signal (z-score) [49]: 2.89 | glycan array binding signal (z-score) [50]: -0.191 | glycan array binding signal (z-score) [51]: -0.246 | glycan array binding signal (z-score) (Fuc(a1-4)GlcNAc): -0.241 | glycan array binding signal (z-score) (Fuc(b1-3)GlcNAc): -0.22 | glycan array binding signal (z-score) (Gal(a1-2)Gal): -0.169 | glycan array binding signal (z-score) (Gal(a1-3)Gal): -0.181 | glycan array binding signal (z-score) (Gal(a1-3)Gal(b1-3)GlcNAc): -0.151 | glycan array binding signal (z-score) [52]: -0.268 | glycan array binding signal (z-score) [53]: 0.47 | glycan array binding signal (z-score) [54]: -0.218

— the supplement of paper PMC8728848
